According to the supplement of paper PMC11417369:
This is one part of the list.

Tested on: PfHDP1 homeodomain (GST-tagged)
Test: gcPBM binding intensity (ln(normalized median fluorescence intensity)); higher = stronger DNA binding
How it was run: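 An Agilent 4 × 180k array of primer-extended double-stranded 36-bp intergenic genomic probes, with negative controls, was incubated for 1 h with GST-tagged P. falciparum DNA-binding domains expressed in E. coli. Alexa488 anti-GST antibody detected bound protein, scanned at 488 nm. Binding intensity is the highest Masliner-normalised natural-log median intensity across replicate spots of either probe orientation.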

| Sequence | gcPBM binding intensity (ln) |
| --- | --- |
| AAAATTTCTTTTTTTTGTACATATATAATAATATAT [XGTACX_site7107] | 6.42 |
| ATTTTTCATATATATATATTAATATATATATATTAA [CACACA_negctrl_site1681] | 7.1 |
| TTTGAACGAAAATACTCACACATATTTATAAACATT [CACACA_site5182] | 6.44 |
| GTATTTTTAAATGACACACACATATATATATATATA [CACACA_site1662] | 9.45 |
| TGAATATTTATACATGCACACTAAAATAAAGAATCT [CACACA_site5351] | 8.07 |
| AAAAATATATTATATGTACACACAAAATTAAGGGAT [CACACA_site8384] | 7.47 |
| AATATATTTTAATACACACACACATATATATATATA [CACACA_site5969] | 9.29 |
| ATATGTATATAAATGTGTACTTATAAATATATATAT [XGTACX_site3250] | 8.01 |
| TTTTTTTTAAATATCACACACATATAACATATTCTA [CACACA_site7687] | 6.46 |
| TTTTTTTTTTTTGAGTGTACTAAAATATTACCTTTT [XGTACX_site646] | 6.19 |
| TGGAAAAATAGGCACACACACATATATACCTATATA [CACACA_site4843] | 6.65 |
| AATATTATAAATGATACACACTTAAAATACACCCAC [CACACA_site5498] | 7.39 |
| TGAATATTTACTTTAGCACACAATTTGTATTTGATT [CACACA_site960] | 7.26 |
| CATTATTATGATAGTTGTACAATTTTTATAAAAAAT [XGTACX_site4411] | 6.75 |
| TATAAATAAATGCGTACACACTAATAAAAAAAAAAA [CACACA_site4630] | 6.35 |
| GAAATAGAGAAACACACACACATATATTTATGTATT [CACACA_site3967] | 6.45 |
| ATAAAAATAAAAAGATGTACGTATTTTTTTTTTTTT [XGTACX_site5329] | 6.22 |
| TTGTATATATTAAATTGTACTTATTTTTTGTATATA [XGTACX_site3251] | 6.2 |
| ATATTATTATAAACTTCACACATTTTATGGGTTTTT [CACACA_site4631] | 6.41 |
| TATATTATTTATATTTGTACACAGCGATATGAAATA [XGTACX_site987] | 6.68 |
| TACAATTTAAAACACACACACAATAATACATATATA [CACACA_site1251] | 6.89 |
| CGCATATTTTATGTTTGTACTCATATGAATATCATA [XGTACX_site4717] | 6.59 |
| CATAAGCACAAGCACAAGCACACATTTATATATATA [CACACA_site882] | 7.39 |
| GAATTTATTTTATTTTCACACACAAAAATAAATATC [CACACA_site8762] | 6.57 |
| TTCTTTAATAAAATAATCTCAAAGAAAATTTTTTCT [GTGCAC_negctrl_site589] | 5.83 |
